These are yes or no findings as the source states them, for the method shown. In cells and extracts the contact can be indirect. Some binding calls cover weakened binding; strength is not graded here.
T1: full length semaphorin 6A (6A-FL) (human (cDNA from Hs68 foreskin fibroblasts)) (UniProt Q9H2E6)
T1 sequence: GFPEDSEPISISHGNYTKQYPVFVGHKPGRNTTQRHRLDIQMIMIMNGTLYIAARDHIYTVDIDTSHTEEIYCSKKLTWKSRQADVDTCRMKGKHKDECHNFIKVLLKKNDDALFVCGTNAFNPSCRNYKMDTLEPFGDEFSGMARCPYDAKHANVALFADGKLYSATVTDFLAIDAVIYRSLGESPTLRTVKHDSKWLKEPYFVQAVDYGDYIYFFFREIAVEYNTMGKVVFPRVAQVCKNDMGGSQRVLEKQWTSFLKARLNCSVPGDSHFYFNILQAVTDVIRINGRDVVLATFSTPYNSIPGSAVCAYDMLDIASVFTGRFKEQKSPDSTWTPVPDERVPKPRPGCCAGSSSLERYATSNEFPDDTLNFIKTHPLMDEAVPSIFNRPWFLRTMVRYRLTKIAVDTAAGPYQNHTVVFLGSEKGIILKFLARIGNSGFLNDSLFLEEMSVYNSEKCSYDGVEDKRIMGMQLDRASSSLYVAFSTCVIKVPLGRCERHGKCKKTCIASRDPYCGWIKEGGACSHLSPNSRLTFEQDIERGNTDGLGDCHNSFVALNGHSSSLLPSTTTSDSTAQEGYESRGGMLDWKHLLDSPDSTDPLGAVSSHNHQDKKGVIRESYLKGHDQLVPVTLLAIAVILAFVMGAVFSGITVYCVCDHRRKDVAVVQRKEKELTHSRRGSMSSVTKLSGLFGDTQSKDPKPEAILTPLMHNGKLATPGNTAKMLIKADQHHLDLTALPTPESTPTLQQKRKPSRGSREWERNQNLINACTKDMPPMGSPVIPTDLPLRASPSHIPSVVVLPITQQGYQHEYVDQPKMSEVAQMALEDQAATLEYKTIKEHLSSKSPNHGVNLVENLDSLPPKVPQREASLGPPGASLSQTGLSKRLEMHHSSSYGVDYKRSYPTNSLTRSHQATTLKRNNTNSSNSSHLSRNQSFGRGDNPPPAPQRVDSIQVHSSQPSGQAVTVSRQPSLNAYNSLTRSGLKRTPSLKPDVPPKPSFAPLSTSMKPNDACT

Chains of the proteins cited; added tags and fusions are not shown.
UniProt Q13158: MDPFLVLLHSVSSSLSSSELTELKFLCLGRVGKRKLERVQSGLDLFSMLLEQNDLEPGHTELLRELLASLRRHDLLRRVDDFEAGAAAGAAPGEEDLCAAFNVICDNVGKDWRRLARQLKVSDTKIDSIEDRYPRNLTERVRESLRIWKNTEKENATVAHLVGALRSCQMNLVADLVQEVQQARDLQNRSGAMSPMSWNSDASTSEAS

T2: SEMA6A SEMA deletion mutant (6AΔsema, aa 513–1031) (human (cDNA from Hs68 foreskin fibroblasts)) (UniProt Q9H2E6)
T2 sequence: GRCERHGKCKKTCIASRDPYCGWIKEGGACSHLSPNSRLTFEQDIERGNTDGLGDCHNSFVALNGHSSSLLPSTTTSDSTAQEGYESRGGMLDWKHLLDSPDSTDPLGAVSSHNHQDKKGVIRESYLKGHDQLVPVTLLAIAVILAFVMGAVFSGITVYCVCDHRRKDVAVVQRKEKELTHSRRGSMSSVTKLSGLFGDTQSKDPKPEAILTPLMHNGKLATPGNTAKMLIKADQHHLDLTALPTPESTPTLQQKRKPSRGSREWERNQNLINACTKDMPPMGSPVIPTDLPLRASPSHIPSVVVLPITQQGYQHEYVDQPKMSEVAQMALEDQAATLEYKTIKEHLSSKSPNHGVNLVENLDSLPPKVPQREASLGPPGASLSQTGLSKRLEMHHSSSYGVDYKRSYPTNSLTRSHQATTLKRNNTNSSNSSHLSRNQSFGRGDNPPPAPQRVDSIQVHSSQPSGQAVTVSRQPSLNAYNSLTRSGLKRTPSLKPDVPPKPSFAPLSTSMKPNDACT

T3: SEMA6A intracellular cytosolic domain construct (6Acyto, aa 575–1031) (human (cDNA from Hs68 foreskin fibroblasts)) (UniProt Q9H2E6)
T3 sequence: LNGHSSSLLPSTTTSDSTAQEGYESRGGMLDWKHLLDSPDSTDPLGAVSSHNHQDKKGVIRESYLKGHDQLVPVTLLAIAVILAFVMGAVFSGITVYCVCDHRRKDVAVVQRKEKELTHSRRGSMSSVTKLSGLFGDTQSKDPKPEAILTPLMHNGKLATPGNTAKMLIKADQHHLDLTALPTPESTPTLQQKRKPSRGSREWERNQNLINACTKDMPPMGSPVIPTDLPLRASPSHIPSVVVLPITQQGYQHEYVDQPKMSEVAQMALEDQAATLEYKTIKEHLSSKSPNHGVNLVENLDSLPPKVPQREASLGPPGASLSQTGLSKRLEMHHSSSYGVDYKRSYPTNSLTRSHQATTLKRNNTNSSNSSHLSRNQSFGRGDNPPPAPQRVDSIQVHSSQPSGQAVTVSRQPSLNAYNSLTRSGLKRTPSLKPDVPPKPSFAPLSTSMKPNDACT

T4: SEMA6A extracellular ectodomain construct (6Aect, aa 1–704) (human (cDNA from Hs68 foreskin fibroblasts)) (UniProt Q9H2E6)
T4 sequence: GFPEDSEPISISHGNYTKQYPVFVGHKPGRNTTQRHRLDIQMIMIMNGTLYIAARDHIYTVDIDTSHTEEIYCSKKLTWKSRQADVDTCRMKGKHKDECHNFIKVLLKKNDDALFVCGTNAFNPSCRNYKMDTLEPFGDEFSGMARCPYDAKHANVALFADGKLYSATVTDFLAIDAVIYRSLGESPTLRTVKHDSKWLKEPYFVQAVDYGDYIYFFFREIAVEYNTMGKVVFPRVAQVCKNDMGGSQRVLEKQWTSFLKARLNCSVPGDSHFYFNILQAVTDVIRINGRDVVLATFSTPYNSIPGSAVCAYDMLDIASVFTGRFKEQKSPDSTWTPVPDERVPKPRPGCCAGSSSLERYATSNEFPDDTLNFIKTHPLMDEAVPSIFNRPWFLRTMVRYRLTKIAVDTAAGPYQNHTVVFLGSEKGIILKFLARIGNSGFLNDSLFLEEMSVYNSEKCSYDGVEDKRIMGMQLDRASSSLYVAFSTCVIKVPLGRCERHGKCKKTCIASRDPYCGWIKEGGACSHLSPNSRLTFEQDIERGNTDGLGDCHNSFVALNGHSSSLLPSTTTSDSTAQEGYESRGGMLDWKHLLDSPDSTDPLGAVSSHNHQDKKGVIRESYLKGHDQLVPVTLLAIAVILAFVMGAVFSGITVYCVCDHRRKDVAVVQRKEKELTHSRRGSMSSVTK

B1: SEMA6A intracellular cytosolic domain construct (6Acyto, aa 575–1031) (domain or fragment, UniProt Q9H2E6 575-1030)
chain: T3 sequence
B2: SEMA6A SEMA deletion mutant (6AΔsema, aa 513–1031) (domain or fragment, UniProt Q9H2E6 513-1030)
chain: T2 sequence

What was measured:
[1] = target: T1, full length semaphorin 6A (6A-FL) (human (cDNA from Hs68 foreskin fibroblasts)); test: co-IP; H1299 cells overexpressing His-tagged SEMA6A constructs; otherwise as in 293T cells (Fig. S5A–C)
[2] = target: T2, SEMA6A SEMA deletion mutant (6AΔsema, aa 513–1031) (human (cDNA from Hs68 foreskin fibroblasts)); test: as above
[3] = target: T3, SEMA6A intracellular cytosolic domain construct (6Acyto, aa 575–1031) (human (cDNA from Hs68 foreskin fibroblasts)); test: as above
[4] = target: T4, SEMA6A extracellular ectodomain construct (6Aect, aa 1–704) (human (cDNA from Hs68 foreskin fibroblasts)); test: as above
[5] = target: T2, SEMA6A SEMA deletion mutant (6AΔsema, aa 513–1031) (human (cDNA from Hs68 foreskin fibroblasts)); test: co-IP; co-IP of FADD with 6AΔsema or 6Acyto in the presence of added purified SEMA domain, with quantification (n = 3); cell line not stated
[6] = target: T3, SEMA6A intracellular cytosolic domain construct (6Acyto, aa 575–1031) (human (cDNA from Hs68 foreskin fibroblasts)); test: as above
[7] = target: T1, full length semaphorin 6A (6A-FL) (human (cDNA from Hs68 foreskin fibroblasts)); test: co-IP; 293T cells overexpressing His-tagged SEMA6A constructs for 48 h; Pierce IP lysis buffer; IP with rabbit anti-FADD or rabbit anti-SEMA6A at 4 °C for 16 h, magnetic beads; control rabbit IgG; blots with anti-FADD and anti-His
[8] = target: T2, SEMA6A SEMA deletion mutant (6AΔsema, aa 513–1031) (human (cDNA from Hs68 foreskin fibroblasts)); test: as above
[9] = target: T3, SEMA6A intracellular cytosolic domain construct (6Acyto, aa 575–1031) (human (cDNA from Hs68 foreskin fibroblasts)); test: as above
[10] = target: T4, SEMA6A extracellular ectodomain construct (6Aect, aa 1–704) (human (cDNA from Hs68 foreskin fibroblasts)); test: as above
[11] = target: Fas-associated protein with death domain (FADD) (human (endogenous in 293T and H1299)) (UniProt Q13158); test: co-IP; H1299 cells overexpressing His-tagged SEMA6A constructs; otherwise as in 293T cells (Fig. S5A–C)
[12] = target: Fas-associated protein with death domain (FADD) (human (endogenous in 293T and H1299)) (UniProt Q13158); test: co-IP; 293T cells overexpressing His-tagged SEMA6A constructs for 48 h; Pierce IP lysis buffer; IP with rabbit anti-FADD or rabbit anti-SEMA6A at 4 °C for 16 h, magnetic beads; control rabbit IgG; blots with anti-FADD and anti-His

Molecule	binding [1]	binding [2]	binding [3]	binding [4]	binding [5]	binding [6]	binding [7]	binding [8]	binding [9]	binding [10]	binding [11]	binding [12]
Fas-associated protein with death domain (FADD) (from UniProt Q13158 1-208)	no binding	binds	binds	no binding	binds	binds	no binding	binds	binds	no binding	–	–
B1	–	–	–	–	–	–	–	–	–	–	binds	binds
B2	–	–	–	–	–	–	–	–	–	–	binds	binds
